The other results are listed elsewhere or left out.
What was measured:
Test in all cases: glycan array binding signal (z-score within array); higher = stronger binding
Conditions in all cases: glycan notation: IUPAC condensed, linker removed
[1] = biological target: Fuc(a1-2)Gal(b1-4)GlcNAc(b1-3)Gal(b1-4)GlcNAc(b1-3)Gal(b1-4)GlcNAc
Summary of the method: (§1)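 The binding signal is a Z-score computed within each array and averaged over linkers. Arrays of the same protein sequence at different concentrations or buffers were also averaged together. Data originate from 3228 arrays in the Consortium for Functional Glycomics database, kept only where the protein sequence was available.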

[2] = biological target: Fuc(a1-2)Gal(b1-4)GlcNAc(b1-3)GalNAc
Summary of the method: as §1

[3] = biological target: Fuc(a1-2)Gal(b1-4)GlcNAc(b1-3)[Fuc(a1-2)Gal(b1-4)GlcNAc(b1-6)]GalNAc
Summary of the method: as §1

[4] = biological target: Fuc(a1-2)Gal(b1-4)GlcNAc(b1-3)[Fuc(a1-3)[Gal(b1-4)]GlcNAc(b1-6)]Gal(b1-4)Glc
Summary of the method: as §1

[5] = biological target: Fuc(a1-2)Gal(b1-4)GlcNAc(b1-6)GalNAc
Summary of the method: as §1

[6] = biological target: Fuc(a1-2)Gal(b1-4)GlcNAc6S
Summary of the method: as §1

[7] = biological target: Fuc(a1-2)Gal(b1-4)[Fuc(a1-3)]GlcNAc
Summary of the method: as §1

[8] = biological target: Fuc(a1-2)Gal(b1-4)[Fuc(a1-3)]GlcNAc(b1-2)Man(a1-3)[Fuc(a1-2)Gal(b1-4)[Fuc(a1-3)]GlcNAc(b1-2)Man(a1-6)]Man(b1-4)GlcNAc(b1-4)[Fuc(a1-6)]GlcNAc
Summary of the method: as §1

[9] = biological target: Fuc(a1-2)Gal(b1-4)[Fuc(a1-3)]GlcNAc(b1-2)[Fuc(a1-2)Gal(b1-4)[Fuc(a1-3)]GlcNAc(b1-4)]Man(a1-3)[Fuc(a1-2)Gal(b1-4)[Fuc(a1-3)]GlcNAc(b1-2)Man(a1-6)]Man(b1-4)GlcNAc(b1-4)GlcNAc
Summary of the method: as §1

[10] = biological target: Fuc(a1-2)Gal(b1-4)[Fuc(a1-3)]GlcNAc(b1-3)Gal(b1-4)[Fuc(a1-3)]GlcNAc
Summary of the method: as §1

[11] = biological target: Fuc(a1-2)Gal(b1-4)[Fuc(a1-3)]GlcNAc(b1-3)Gal(b1-4)[Fuc(a1-3)]GlcNAc(b1-3)Gal(b1-4)[Fuc(a1-3)]GlcNAc
Summary of the method: as §1

[12] = biological target: Fuc(a1-2)Gal(b1-4)[Fuc(a1-3)]GlcNAc(b1-3)GalNAc
Summary of the method: as §1

[13] = biological target: Fuc(a1-2)Gal(b1-4)[Fuc(a1-3)]GlcNAc(b1-3)[Neu5Ac(a2-6)Gal(b1-4)GlcNAc(b1-6)]Gal(b1-4)Glc
Summary of the method: as §1

[14] = biological target: Fuc(a1-2)Gal3S(b1-4)GlcNAc
Summary of the method: as §1

[15] = biological target: Fuc(a1-2)Gal6S(b1-3)GlcNAc
Summary of the method: as §1

[16] = biological target: Fuc(a1-2)Gal6S(b1-3)GlcNAc6S
Summary of the method: as §1

Fuc(a1-2)Gal6S(b1-4)Glc = biological target: Fuc(a1-2)Gal6S(b1-4)Glc
Summary of the method: as §1

[17] = biological target: Fuc(a1-2)Gal6S(b1-4)Glc6S
Summary of the method: as §1

Fuc(a1-2)[Gal(a1-3)]Gal = biological target: Fuc(a1-2)[Gal(a1-3)]Gal
Summary of the method: as §1

[18] = biological target: Fuc(a1-2)[Gal(a1-3)]Gal(b1-3)GalNAc
Summary of the method: as §1

[19] = biological target: Fuc(a1-2)[Gal(a1-3)]Gal(b1-3)GalNAc(b1-3)Gal(a1-4)Gal(b1-4)Glc
Summary of the method: as §1

[20] = biological target: Fuc(a1-2)[Gal(a1-3)]Gal(b1-3)GlcNAc
Summary of the method: as §1

[21] = biological target: Fuc(a1-2)[Gal(a1-3)]Gal(b1-3)GlcNAc(b1-2)Man(a1-3)[Fuc(a1-2)[Gal(a1-3)]Gal(b1-3)GlcNAc(b1-2)Man(a1-6)]Man(b1-4)GlcNAc(b1-4)GlcNAc
Summary of the method: as §1

[22] = biological target: Fuc(a1-2)[Gal(a1-3)]Gal(b1-3)GlcNAc(b1-2)Man(a1-3)[Fuc(a1-2)[Gal(a1-3)]Gal(b1-3)GlcNAc(b1-2)Man(a1-6)]Man(b1-4)GlcNAc(b1-4)[Fuc(a1-6)]GlcNAc
Summary of the method: as §1

[23] = biological target: Fuc(a1-2)[Gal(a1-3)]Gal(b1-3)GlcNAc(b1-3)GalNAc
Summary of the method: as §1

[24] = biological target: Fuc(a1-2)[Gal(a1-3)]Gal(b1-3)GlcNAc(b1-6)GalNAc
Summary of the method: as §1

[25] = biological target: Fuc(a1-2)[Gal(a1-3)]Gal(b1-4)Glc
Summary of the method: as §1

[26] = biological target: Fuc(a1-2)[Gal(a1-3)]Gal(b1-4)GlcNAc
Summary of the method: as §1

[27] = biological target: Fuc(a1-2)[Gal(a1-3)]Gal(b1-4)GlcNAc(b1-2)Man
Summary of the method: as §1

[28] = biological target: Fuc(a1-2)[Gal(a1-3)]Gal(b1-4)GlcNAc(b1-2)Man(a1-3)[Fuc(a1-2)[Gal(a1-3)]Gal(b1-4)GlcNAc(b1-2)Man(a1-6)]Man(b1-4)GlcNAc(b1-4)GlcNAc
Summary of the method: as §1

B1: GS7807E-bfa-538-23-538 (Bacteroides fragilis) (protein)
chain: TDSFESFNTNEAGFDNDSKKQDFNYYGIPLGIIQQGIYFNYDWGSGKNWPFQTMQNLGADLFSGYVHDFNPFNEGKNNSTYYMMDGWNGSTWDNTYGYIMPEVQKSETINEKDNIGFFGITKILKVELMHRLSDLYGPIVYTQFGSKTGSTPDTQQEAYKAFFNDLDTGIAKIREYQKANPDIESFAKFDILMPQGKRTFSEWIRFANSLRLRLAVRIAMADSKLAVAEAQKALTDEEGLLEGNDEVVAVSTSSGYTNPFGEINKAWGEVFMNANMESLLVGYEDPRMEKYFDKATGSDATSLIDYKGTYKGIRQGTGFSHKNYNGHSKSTITQQTDAVLMTPAEVWFLRAEAALRGWSSESVKDCYEKGVKASFAQWGAAGAEAYLESDRKPSDYVDAFKAANNVKAVNTLTPKWDDAAGNEDKLGRIITQKWLAMFPEGGEAWAEQRRTGYPRLFPVLVNQSEGTVDTNLGPRRLNFFVGIKTTNPEQYTQLVNALGGIDNCGTRLWWDTGRNF
[1]
  glycan array binding signal (z-score): -0.462
[2]
  glycan array binding signal (z-score): -0.372
[3]
  glycan array binding signal (z-score): 0.486
[4]
  glycan array binding signal (z-score): -0.593
[5]
  glycan array binding signal (z-score): 2.1
[6]
  glycan array binding signal (z-score): -0.178
[7]
  glycan array binding signal (z-score): -0.65
[8]
  glycan array binding signal (z-score): 0.392
[9]
  glycan array binding signal (z-score): 0.988
[10]
  glycan array binding signal (z-score): -0.698
[11]
  glycan array binding signal (z-score): -0.685
[12]
  glycan array binding signal (z-score): -0.087
[13]
  glycan array binding signal (z-score): -0.569
[14]
  glycan array binding signal (z-score): -0.564
[15]
  glycan array binding signal (z-score): -0.392
[16]
  glycan array binding signal (z-score): -0.431
Fuc(a1-2)Gal6S(b1-4)Glc
  glycan array binding signal (z-score): -0.644
[17]
  glycan array binding signal (z-score): -0.639
Fuc(a1-2)[Gal(a1-3)]Gal
  glycan array binding signal (z-score): -0.417
[18]
  glycan array binding signal (z-score): -0.4
[19]
  glycan array binding signal (z-score): 0.24
[20]
  glycan array binding signal (z-score): -0.207
[21]
  glycan array binding signal (z-score): -0.206
[22]
  glycan array binding signal (z-score): 1.31
[23]
  glycan array binding signal (z-score): -0.698
[24]
  glycan array binding signal (z-score): -0.086
[25]
  glycan array binding signal (z-score): -0.624
[26]
  glycan array binding signal (z-score): -0.325
[27]
  glycan array binding signal (z-score): -0.627
[28]
  glycan array binding signal (z-score): 2.19
